Measured values: a collection of fitness landscapes (doi:10.1126/science.1257360)
This is one part of the list.

B1: PhoQ; a variant is named by its letters at X, in order, P23837 (parent)
chain: MKKLLRLFFPLSLRVRFLLATAAVVLVLSLAYGMVALIGYSVSFDKTTFRLLRGESNLFYTLAKWENNKLHVELPENIDKQSPTMTLIYDENGQLLWAQRDVPWLMKMIQPDWLKSNGFHEIEADVNDTSLLLSGDHSIQQQLQEVREDDDDAEMTHSVAVNVYPATSRMPKLTIVVVDTIPVELKSSYMVWSWFIYVLSANLLLVIPLLWVAAWWSLRPIEALAKEVRELEEHNRELLNPATTRELTSLVRNLNRLLKSERERYDKYRTTLTDLTHSLKTPLXXLQXXLRSLRSEKMSVSDAEPVMLEQISRISQQIGYYLHRASMRGGTLLSRELHPVAPLLDNLTSALNKVYQRKGVNISLDISPEISFVGEQNDFVEVMGNVLDNACKYCLEFVEISARQTDEHLYIVVEDDGPGIPLSKREVIFDRGQRVDTLRPGQGVGLAVAREITEQYEGKIVAGESMLGGARMEVIFGRQHSAPKDE

Variants of: B1
Test: enrichment ratio after two sorts for PhoP signalling (ratio (wild type AVST 3.29)); higher = more functional
Conditions: with PhoP (E. coli)

Variant | enrichment ratio
AIAL | 10.6
VNES | ≤ 0.25
WHPN | ≤ 0.25
RQGN | ≤ 0.25
YISL | 0.261
SNFL | ≤ 0.25
PTYP | ≤ 0.25
QMKV | ≤ 0.25
EATF | ≤ 0.25
LQHM | ≤ 0.25
WTWF | ≤ 0.25
FRCG | ≤ 0.25
PHMQ | ≤ 0.25
QDKG | ≤ 0.25
ISRD | ≤ 0.25
MMRE | ≤ 0.25
YGTL | 1.06
SGHV | ≤ 0.25
MRRA | ≤ 0.25
VELG | 7.87
VGAV | 2.51
KEQF | ≤ 0.25
RLFT | ≤ 0.25
MTYC | ≤ 0.25
NIVV | ≤ 0.25

Variant | enrichment ratio
VVWH | ≤ 0.25
AFEG | ≤ 0.25
FSWD | ≤ 0.25
VYQF | ≤ 0.25
SKIF | 2.73
ESPA | ≤ 0.25
WVNR | ≤ 0.25
KPPG | ≤ 0.25
QGFR | ≤ 0.25
RHNH | ≤ 0.25
WWPL | ≤ 0.25
EYLD | ≤ 0.25
LPGV | ≤ 0.25
MTIY | ≤ 0.25
WTHF | ≤ 0.25
PVLV | ≤ 0.25
KHFK | ≤ 0.25
HAYG | ≤ 0.25
AIFI | ≤ 0.25
ERNN | ≤ 0.25
NFYN | ≤ 0.25
FYDH | ≤ 0.25
LQRE | ≤ 0.25
HNSH | ≤ 0.25
DSWA | ≤ 0.25

Variant | enrichment ratio
FFVK | ≤ 0.25
EKYG | ≤ 0.25
TMTW | ≤ 0.25
SLDA | ≤ 0.25
DQII | ≤ 0.25
DMCW | ≤ 0.25
HFRR | ≤ 0.25
MLRR | ≤ 0.25
PLAE | ≤ 0.25
ISCV | 1.12
HLNV | ≤ 0.25
VVRN | ≤ 0.25
SNYR | ≤ 0.25
SIYR | 0.301
EMEL | ≤ 0.25
SRDK | ≤ 0.25
WNWW | ≤ 0.25
QFNI | ≤ 0.25
YEVK | ≤ 0.25
LYHC | ≤ 0.25
FTLL | 11.6
NPYW | ≤ 0.25
AAGK | ≤ 0.25
IQDF | ≤ 0.25
WCRP | ≤ 0.25

Variant | enrichment ratio
SPGH | ≤ 0.25
RLDK | ≤ 0.25
NLWF | ≤ 0.25
IYHQ | ≤ 0.25
PMPR | ≤ 0.25
KWPF | ≤ 0.25
HSLD | ≤ 0.25
MFVQ | ≤ 0.25
AAYM | ≤ 0.25
LISP | ≤ 0.25
FHDT | ≤ 0.25
GFIY | ≤ 0.25
HLAT | ≤ 0.25
DPVS | ≤ 0.25
IEND | ≤ 0.25
TFAA | 6.15
SCQS | ≤ 0.25
STHA | ≤ 0.25
APVV | ≤ 0.25
ECRL | ≤ 0.25
VFFQ | ≤ 0.25
DMYL | ≤ 0.25
DLYY | ≤ 0.25
DTND | ≤ 0.25
LDSI | ≤ 0.25

Variant | enrichment ratio
ASIR | 0.563
IVLQ | 0.372
FLKQ | ≤ 0.25
EAPI | ≤ 0.25
SCEM | ≤ 0.25
VYTW | ≤ 0.25
QLWY | ≤ 0.25
LTCR | ≤ 0.25
TAVA | ≤ 0.25
KHWP | ≤ 0.25
STFH | ≤ 0.25
SFIH | ≤ 0.25
SVCS | 8.61
VSTA | ≤ 0.25
NEHQ | ≤ 0.25
AEVW | 1.82
VMHW | ≤ 0.25
NGCF | ≤ 0.25
FFGK | ≤ 0.25
HGCP | ≤ 0.25
HKKF | ≤ 0.25
HRNG | ≤ 0.25
DTHK | ≤ 0.25
WDIA | ≤ 0.25
KDPI | ≤ 0.25

Variant | enrichment ratio
HGWG | ≤ 0.25
FEPN | ≤ 0.25
RITL | ≤ 0.25
MPID | ≤ 0.25
NIIL | ≤ 0.25
PWRY | ≤ 0.25
DLQE | ≤ 0.25
EYIP | ≤ 0.25
WFLF | ≤ 0.25
YCAE | ≤ 0.25
HLYI | ≤ 0.25
MLVN | ≤ 0.25
RNMA | ≤ 0.25
LFMY | ≤ 0.25
VDGS | ≤ 0.25
LGVR | ≤ 0.25
IYLR | ≤ 0.25
TRPD | ≤ 0.25
DDPN | ≤ 0.25
VIVQ | ≤ 0.25
YWYG | ≤ 0.25
TFPF | ≤ 0.25
HVDD | ≤ 0.25
DKQR | ≤ 0.25
KEFQ | ≤ 0.25

Variant | enrichment ratio
SNQV | 9.2
LNHQ | ≤ 0.25
DPAT | ≤ 0.25
TGSQ | 25.1
LKPI | ≤ 0.25
VCTD | ≤ 0.25
RWMP | ≤ 0.25
HETK | ≤ 0.25
NHWC | ≤ 0.25
HFIF | ≤ 0.25
GGSR | ≤ 0.25
GSMV | 17.2
FGHV | ≤ 0.25
DQFN | ≤ 0.25
AFVG | 4.66
ACPI | 9.4
PLRH | ≤ 0.25
FRYH | ≤ 0.25
IPYY | ≤ 0.25
SKHY | ≤ 0.25
FARQ | ≤ 0.25
GDRL | ≤ 0.25
MNKL | ≤ 0.25
ENFA | ≤ 0.25
NQIK | ≤ 0.25

Variant | enrichment ratio
KHEE | ≤ 0.25
NREA | ≤ 0.25
TKYM | 25.3
RMTM | ≤ 0.25
EWFL | ≤ 0.25
RSDL | ≤ 0.25
TCYC | ≤ 0.25
HSLM | 22.1
MVVS | ≤ 0.25
RQGI | ≤ 0.25
RESA | ≤ 0.25
KFCR | ≤ 0.25
EYDF | ≤ 0.25
VYHK | ≤ 0.25
ASSS | 11.9
PGLQ | ≤ 0.25
MFLW | ≤ 0.25
DDFI | ≤ 0.25
NYEH | ≤ 0.25
ANNA | ≤ 0.25
